In article PMC4950921 (Biochimica et biophysica acta, 2016):

Target: the molecule itself
Assay: FRET or BRET

B1: EphA2 receptor tyrosine kinase, wild-type (EphA2-15aa-mTurq / EphA2-15aa-eYFP) (receptor)
chain: [skipping about 500 residues]IGGVAVGVVLLLVLAGVGFFIHRRRKNQRARQSPEDVYFSKSEQLKPLKTYVDPHTYEDPNQAVLKFTTEIHPSCVTRQKVIGAGEFGEVYKGMLKTSSGKKEVPVAIKTLKAGYTEKQRVDFLGEAGIMGQFSHHNIIRLEGVISKYKPMMIITEYMENGALDKFLREKDGEFSVLQLVGMLRGIAAGMKYLANMNYVHRDLAARNILVNSNLVCKVSDFGLSRVLEDDPEATYTTSGGKIPIRWTAPEAISYRKFTSASDVWSFGIVMWEVMTYGERPYWELSNHEVMKAINDGFRLPTPMDCPSAIYQLMMQCWQQERARRPKFADIVSILDKLIRAPDSLKTLADFDPRVSIRLPSTSGSEGVPFRTVSEWLESIKMQQYTEHFMAAGYTAIEKVVQMTNDDIKRIGVRLPGHQKRIAYSLLGLKDQVNTVGIPI
stoichiometry N: 2
